# Results as given in the supplement of paper PMC4166925.
# ± gives the standard deviation of the averaged measurements. The full ranking holds about 33,000 sequences; the median of “E-score (dimensionless, -0.5 to 0.5)” is about -0.046, and the highest 2% start at about 0.36. This is one part of the list.
# System: T1, SpTbr T-box DNA-binding domain (GST fusion)
# T1 sequence: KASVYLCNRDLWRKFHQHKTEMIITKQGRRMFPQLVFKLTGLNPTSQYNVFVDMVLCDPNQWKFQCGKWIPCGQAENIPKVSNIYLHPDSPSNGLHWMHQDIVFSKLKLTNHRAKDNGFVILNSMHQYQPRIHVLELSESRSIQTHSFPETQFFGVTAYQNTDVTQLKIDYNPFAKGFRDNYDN
# Assay: PBM E-score of 8-mer (E-score (dimensionless, -0.5 to 0.5)); Tbr is Tbrain of the sea star Patiria miniata (Pm) or the sea urchin Strongylocentrotus purpuratus (Sp); higher = stronger binding preference; most listed sequences are background and not binding sites
# Conditions: the construct has about 5 more residues each side
# Method in brief: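 GST-fused Tbr T-box DNA-binding domains (the whole T-box plus about five flanking residues) were expressed in BL21 E. coli at 20 °C and purified by glutathione affinity chromatography. Universal Agilent oligonucleotide arrays were made double-stranded by primer extension, incubated with 200 nM protein in PBS (pH 7.5), then scanned and quantified. Every ungapped 8-mer was scored from probe intensities. The Universal PBM Analysis Suite gave each word an enrichment E-score, averaged over duplicate arrays.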
row,Sequence,PBM E-score of 8-mer
1,ACTGCGGA,-0.25 ± 0.021
2,ACCGCGCT,0.0777 ± 0.094
3,AGGAACGA,-0.0882 ± 0.076
4,CCGACTGC,-0.0987 ± 0.014
5,ACTCAGCT,-0.00575 ± 0.016
6,ATCTGCAA,-0.127 ± 0.042
7,ACTCTCGC,0.203 ± 0.033
8,CAGACTTC,-0.188 ± 0.011
9,GCAGACAA,0.0601 ± 0.0044
10,AGCACGCC,0.0302 ± 0.026
11,AGGAGGTA,-0.0388 ± 0.051
12,AGACCCAC,0.0705 ± 0.1
13,ATTTTAGA,-0.0365 ± 0.11
14,GGTCCAAA,-0.137 ± 0.0084
15,ATGGGTTA,-0.0808 ± 0.079
16,GGCCCGAA,-0.217 ± 0.058
17,AGAGAGAT,-0.179 ± 0.024
18,CCGCTTCA,-0.00373 ± 0.014
19,CGTACCAG,-0.161 ± 0.064
20,AGCCGTCA,0.121 ± 0.0059
21,TTGGACAA,0.00904 ± 0.046
22,ATGTACAT,-0.185 ± 0.064

row,Sequence,PBM E-score of 8-mer
1,AACCATGG,-0.0415 ± 0.0021
2,AGCCACGG,-0.0343 ± 0.069
3,AGATCGTA,0.0572 ± 0.031
4,ATGGTAAT,-0.147 ± 0.0066
5,ACGCACGC,0.24 ± 0.072
6,CGTAGCCA,-0.196 ± 0.073
7,CAGTGCAG,-0.179 ± 0.024
8,CTAGGTGA,0.356 ± 0.026
9,GCGCTTGA,0.0279 ± 0.045
10,ACTGAAGG,-0.113 ± 0.05
11,AAACCTGA,-0.00426 ± 0.071
12,ATATTACA,0.0587 ± 0.075
13,AATATAAA,-0.125 ± 0.022
14,AGTCTAGC,-0.116 ± 0.018
15,GACATCCC,0.0314 ± 0.011
16,CTTGGTAA,0.00973 ± 0.026
17,CGGTTGGC,0.0889 ± 0.011
18,GGCAGAAC,-0.0963 ± 0.0052
19,GAATCGTC,-0.0873 ± 0.068
20,CTCAACAA,-0.000735 ± 0.08
21,ATTCGAGG,-0.0354 ± 0.033
22,ATCTTTGG,-0.0893 ± 0.0079

row,Sequence,PBM E-score of 8-mer
1,GATCCTAA,-0.0791 ± 0.038
2,CCAGAGGG,-0.31 ± 0.0048
3,ACAACTAC,0.111 ± 0.061
4,GTAGTAAA,-0.0759 ± 0.019
5,GTCTTCAC,0.28 ± 0.0046
6,GGGGCCTA,-0.185 ± 0.063
7,CTATCAAG,-0.119 ± 0.021
8,GTCTTCCA,-0.0575 ± 0.036
9,ACATAATG,0.0621 ± 0.025
10,ATAATTAC,-0.0638 ± 0.075
11,ACGATAAT,-0.0718 ± 0.0031
12,ATCCGCAG,-0.241 ± 0.013
13,CGCTATAG,-0.0467 ± 0.031
14,GCACGTAA,-0.0174 ± 0.035
15,AAGGACAG,-0.154 ± 0.025
16,GTTAGGTA,-0.00017 ± 0.011
17,ATATCGTA,-0.119 ± 0.017
18,CTGCGAAC,0.365 ± 0.0088
19,AGATATAC,-0.184 ± 0.094
20,AATGGAGG,0.0705 ± 0.0038
21,ACAGGAGG,-0.116 ± 0.042
22,GCGACGGA,0.103 ± 0.06

row,Sequence,PBM E-score of 8-mer
1,ATAGAGCC,-0.212 ± 0.02
2,GGCAGGTA,-0.105 ± 0.077
3,CCAAGGTA,-0.0843 ± 0.0088
4,AAAGACTC,-0.0936 ± 0.0099
5,ATATTAGA,-0.165 ± 0.0021
6,GTGTTAAA,0.395 ± 0.026
7,CCATGCCG,0.0151 ± 0.00083
8,ACCGGCTA,-0.122 ± 0.031
9,GCTTGACC,-0.274 ± 0.028
10,GGAAGCGA,0.00717 ± 0.012
11,AAGGATAA,0.0197 ± 0.021
12,AAAGGAGA,-0.0355 ± 0.033
13,AGAAACGC,0.0384 ± 0.025
14,ATGTCCGG,-0.168 ± 0.037
15,CGTCGTCA,0.234 ± 0.02
16,TCGAACCA,-0.0192 ± 0.024
17,GCAAGAGA,-0.0297 ± 0.023
18,GGCGGTTA,-0.133 ± 0.03
19,GCTCGTAC,-0.201 ± 0.033
20,ACCGATTC,-0.197 ± 0.059
